The source of these data is patent US8263074B2, “Fibroblast growth factor receptor-1 inhibitors and methods of treatment thereof” (ImClone LLC, priority 2003, dated 2012).

Assay [1] addresses T1, FGFR-1c (Homo sapiens, UniProt P11362).
T1 construct: purchased R&D Systems
The experiment in a line: BiaCore binding kinetics. The settings on record: BiaCore analyses; read-out: KDa to FGFR-1(IIIc).

The target in assay [2] is T2, FGFR-1(IIIb) (Homo sapiens, UniProt P11362).
T2 construct: purchased R&D Systems
The experiment in a line: ELISA blocking assay (receptor binding to immobilized FGF). The protocol: Recombinant FGFs (R&D systems, Minneapolis, Minn.) were coated on Immulon® 2B microtiter plates (ThermoLab Systems, Franklin, Mass.) at concentrations of 0.5-2 μg/ml for 2 hrs. The plates were then washed with 0.2% Tween20/PBS, and blocked with 5% milk/PBS for 2 hrs before use. Phage or antibody was serially diluted with 5 μg/ml heparin (Sigma, St Louis, Mo.), 5% milk, PBS. Recombinant FGFR-1 (R&D Systems) was then added to a final concentration of 1 μg/ml. The mixture was incubated at room temperature for 1 hr before transfer to the FGF-2 coated plates, and incubated at room temperature for an additional 2 hrs. Plates were then washed 3 times with 0.2% Tween20/PBS. The bound receptors were detected using an anti-human Fc monoclonal antibody coupled with HRP (Pierce Biotechnology Inc., Rockford, Ill.) solution prepared according to supplier's instructions. Data were presented as % inhibition of ligand-receptor binding of the controls.
This experiment was thoroughly described in Examples 6 and 14, except that FGFR-1(IIIb) recombinant protein was used instead of FGFR-1(IIIc) in all occasions. FR1-4H inhibited the binding of FGFR-(IIIb) to FGF Ligand (FIG. 29). Percent binding was determined using the ELISA blocking assay described in Examples 6 and 14.

T2 sequence (P11362 22-822 isoform P11362-19 limits assumed): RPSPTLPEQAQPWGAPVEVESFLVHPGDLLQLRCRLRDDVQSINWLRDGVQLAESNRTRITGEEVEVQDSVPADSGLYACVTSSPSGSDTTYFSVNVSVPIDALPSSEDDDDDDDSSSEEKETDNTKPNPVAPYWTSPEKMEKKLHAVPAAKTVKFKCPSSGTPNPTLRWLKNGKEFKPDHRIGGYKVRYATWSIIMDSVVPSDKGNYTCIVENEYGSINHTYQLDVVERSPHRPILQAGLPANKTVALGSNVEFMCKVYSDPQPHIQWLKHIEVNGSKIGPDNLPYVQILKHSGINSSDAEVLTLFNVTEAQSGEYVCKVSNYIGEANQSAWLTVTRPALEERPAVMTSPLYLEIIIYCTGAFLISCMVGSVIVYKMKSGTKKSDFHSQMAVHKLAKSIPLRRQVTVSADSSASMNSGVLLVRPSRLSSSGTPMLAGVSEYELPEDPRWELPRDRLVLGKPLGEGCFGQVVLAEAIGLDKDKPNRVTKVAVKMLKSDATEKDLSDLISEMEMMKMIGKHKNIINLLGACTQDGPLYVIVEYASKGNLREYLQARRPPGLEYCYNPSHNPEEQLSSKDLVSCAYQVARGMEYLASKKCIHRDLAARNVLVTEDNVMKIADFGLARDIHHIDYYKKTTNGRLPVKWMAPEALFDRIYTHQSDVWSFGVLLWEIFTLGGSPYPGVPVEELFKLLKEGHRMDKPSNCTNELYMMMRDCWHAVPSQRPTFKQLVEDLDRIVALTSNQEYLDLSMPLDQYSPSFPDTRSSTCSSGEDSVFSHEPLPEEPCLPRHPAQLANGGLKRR
T1 sequence (P11362 22-822): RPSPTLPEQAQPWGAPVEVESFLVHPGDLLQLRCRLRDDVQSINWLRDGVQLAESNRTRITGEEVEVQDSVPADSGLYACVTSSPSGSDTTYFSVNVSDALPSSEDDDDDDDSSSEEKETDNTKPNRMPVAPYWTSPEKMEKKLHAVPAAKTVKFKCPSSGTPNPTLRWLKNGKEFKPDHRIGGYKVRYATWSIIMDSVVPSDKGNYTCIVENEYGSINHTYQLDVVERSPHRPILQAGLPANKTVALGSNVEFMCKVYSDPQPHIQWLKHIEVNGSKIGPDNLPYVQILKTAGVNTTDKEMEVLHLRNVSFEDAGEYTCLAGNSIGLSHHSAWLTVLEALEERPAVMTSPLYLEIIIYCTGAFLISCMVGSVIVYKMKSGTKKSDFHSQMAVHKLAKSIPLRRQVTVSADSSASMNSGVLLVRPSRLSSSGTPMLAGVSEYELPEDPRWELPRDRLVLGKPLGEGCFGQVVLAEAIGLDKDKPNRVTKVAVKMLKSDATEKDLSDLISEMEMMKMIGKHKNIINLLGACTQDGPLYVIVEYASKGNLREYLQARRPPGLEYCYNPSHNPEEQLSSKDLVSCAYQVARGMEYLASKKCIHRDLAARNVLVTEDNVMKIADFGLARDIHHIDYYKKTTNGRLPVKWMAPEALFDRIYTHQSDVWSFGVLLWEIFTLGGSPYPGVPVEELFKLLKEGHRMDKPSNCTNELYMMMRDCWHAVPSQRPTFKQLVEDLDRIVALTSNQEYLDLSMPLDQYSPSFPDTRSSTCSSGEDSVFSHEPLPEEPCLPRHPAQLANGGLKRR

B1: FR1-4H: neutralizing antibody specific to only the b-splicing form of FGFR-1; VH/VL SEQ ID NOS:23, 24 (antibody, listed as Homo sapiens, V domains shown)
VH: QVQLVEFGPGLVKPSETLSLTCTVSGGSISSYYWSWIRQPPGKGLEWIGYIYYSGSTNYNPSLKSRVAISVDTSKNQFSLKLSSVTAADTAVYYCAREYYYDSSGYYFYAFDIWGQGTTVTVSS
VL: LPVLTQPPSASGTPGQRVSISCSGSSSNIGSNYVYWYQQLPGTAPKLLIFRNNQRPSGVPDRFSGSKSGTSASLAISGLRSEDEADYYCAAWDDSLSGWVFGGGTKLTVLG
For B1, the Kd in assay [1] is above 10 µM. Moreover, the “inhibition of binding of FGFR-(IIIb) to FGF ligand” value in assay [2] is on record as “inhibited”. The “antibody concentration at which percent binding was statistically reduced over control” value in assay [2] (FGFR-1(IIIb)) is recorded as “above 1 nM”.
